In all, about 310,000 compounds went through this assay and about 18,000 (5.8%) were called active. The shares of active, inactive and inconclusive entries below differ from those in the screen. The call rests on the fitted dose curve; in most records, active means well fitted inhibition curve with a large enough effect; inconclusive means small, poorly fitted or top-dose-only effect, or another doubt; inactive means no such curve, though single readings can be large or run the other way. No potency is given beside an inconclusive call; the fits are too rough.
Assay: Primary qHTS for delayed death inhibitors of the malarial parasite plastid, 48 hour incubation
Conditions: P. falciparum luciferase growth in erythrocytes; series mostly up to 28.7 µM; activity change, negative = inhibition: at the top concentration
Summary of the method: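 Growth was read as firefly luciferase luminescence after a 48 h, 37 C, 5% CO2 exposure of compounds to reporter-bearing P. falciparum cultures (0.1% parasitemia, 2% hematocrit final) in Albumax-supplemented RPMI 1640.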
On the % scale 0 is the no-effect control and ±100 the full control effect; potency means the concentration at half of the fitted maximal effect; tags describe the fitted curve by direction and shape.

Row | Structure (SMILES) | Potency | activity change, negative = inhibition
1 | COc1cc2c(cc1OC)-c1cc(NCc3ccccn3)nc(=O)n1CC2 | inconclusive [inhibitor, single point] | 
2 | Cc1ccc2c(c1)N(S(=O)(=O)c1ccc(F)cc1)C(C(C)(C)C)CO2 (stereo not given) | active: 13.1 µM | 
3 | CN(C)/C=C/C(=O)c1cccc([N+](=O)[O-])c1 |  | inactive: -2.24%
4 | Cc1ccc(N(Cc2ccc(C(=O)NCCSc3ccccn3)cc2)S(C)(=O)=O)cc1C | inconclusive [inhibitor, single point] | 
5 | CCOc1ccc2nc(N3CCC(C(=O)NC4CCCCC4)CC3)sc2c1 |  | inactive: 17.3%
6 | COc1ccc(-c2ccc3c(N)c(C(=O)NC(C)C)sc3n2)cc1OC | inconclusive [inhibitor, partial curve, poor fit] | 
7 | COCCN(C(=S)Nc1ccc(C(C)C)cc1)C(C)c1cccs1 (stereo not given) | inconclusive [inhibitor, partial curve] | 
8 | O=[N+]([O-])c1cc([N+](=O)[O-])c(Oc2cc(Cl)ccc2Cl)cc1NC1CCCCCCC1 | inconclusive [inhibitor, partial curve] | 
9 | CN(C(=O)c1cc(S(=O)(=O)N2CCOCC2)cs1)c1ccccc1 |  | inactive: -4.17%
10 | O=C1C(=Nc2cccc(Cl)c2)CC(c2ccc(Cl)cc2)N1c1cccc(Cl)c1 (stereo not given) | inconclusive [inhibitor, full curve] | 
11 | O=C(Cn1cc(C(F)(F)F)ccc1=O)N/N=C/c1ccccc1O | inconclusive [inhibitor, single point] | 
12 | COc1cc(C(=O)OC(C)c2ccc(F)cc2)ccc1OCC(=O)N1CCOCC1 (stereo not given) | inconclusive [inhibitor, partial curve, poor fit] | 
13 | O=C(NCCc1ccccc1)C1CCC(=O)N1CCc1ccccc1 (stereo not given) |  | inactive: -26.9% [at 0.00184 µM]
14 | O=C(NC1CCCCC1)c1ccc(NS(=O)(=O)c2cccc3cccnc23)cc1 | inconclusive [inhibitor, single point] | 
15 | CCCc1cc(-c2ccc3c(c2)COc2c4ccccc4nn2-3)on1 |  | inactive: 148%
16 | Cc1ccc(Cl)cc1N1CCN(C(=O)C2CCN(S(C)(=O)=O)CC2)CC1 |  | inactive: -9.23%
17 | Cc1cc(O)c(-c2cc(C(=O)Nc3cccnc3)[nH]n2)cc1C | active: 2.62 µM | 
18 | Cn1cc(CN2CCN(c3cnccn3)CC2)c(-c2cccc(Cl)c2)n1 | inconclusive [inhibitor, partial curve, poor fit] | 
19 | COc1cc2cc(CCCOC(=O)CCCC(=O)O)oc(=O)c2cc1OC |  | inactive: 3.08%
20 | Clc1ccc(C2CC(c3cccs3)n3ncnc3N2)cc1Cl (stereo not given) | inconclusive [inhibitor, single point] | 
21 | O=C(O)c1c2c(nc3ccccc13)/C(=C/c1ccc(OC(F)F)cc1)CCC2 |  | inactive: 26.6%
22 | COc1cccc(N/C(=N/C(=S)Nc2ccc(C)cc2C)Nc2nc(C)cc(C)n2)c1 | active: 4.15 µM | 
23 | CCCOc1ccc(C(CC(=O)O)NC(=O)Cc2ccccc2)cc1 (stereo not given) |  | inactive: 3.68%
24 | CC1(C)CC2(CC(c3ccccc3)c3ccc(O)cc3O2)NC(=S)N1 (stereo not given) |  | inactive: -10.3%

Row | Structure (SMILES) | Potency | activity change, negative = inhibition
25 | COc1ccc(-n2sc3ccc(F)cc3c2=O)cc1 | active: 4.15 µM | 
26 | C=CCNC(=O)c1cn(CC)c2cc(N3CCN(C(=O)c4ccco4)CC3)c(F)cc2c1=O | active: 7.38 µM | 
27 | CSc1nnc(NC(=O)C23CC4CC(CC(C4)C2)C3)s1 |  | inactive: 53%
28 | COc1ccc(/C=C2\SC(=NCc3ccccc3)N(Cc3ccccc3)C2=O)cc1OC | inconclusive [inhibitor, single point] | 
29 | Fc1ccc(CNCCC(Cc2ccccc2)c2ccco2)cc1 (stereo not given) | inconclusive [inhibitor, single point] | 
30 | COc1ccc(C(C)=O)c2c(O)cccc12 | inconclusive [inhibitor, single point] | 
31 | COc1ccc(-c2cc(C(=O)N3CCN(c4ncccn4)CC3)c3ccccc3n2)c(OC)c1 | inconclusive [inhibitor, single point] | 
32 | COc1ccc(/C=N/NC(=O)c2c(C)nnn2-c2nonc2N)cc1OC | inconclusive [inhibitor, full curve, poor fit] | 
33 | COc1ccc([N+](=O)[O-])cc1NC(=O)C(C)OC(=O)C1CCC1 (stereo not given) |  | inactive: 13.7%
34 | CC1CCCC(n2c(=S)[nH]c3ccccc3c2=O)C1C (stereo not given) | inconclusive [inhibitor, partial curve, poor fit] | 
35 | O=C(OC1CCOC1=O)C1CCN(S(=O)(=O)c2c(Cl)cccc2Cl)CC1 (stereo not given) | inconclusive [inhibitor, partial curve, poor fit] | 
36 | CC(=O)c1cc2c(cc1NC(=O)Cn1nc(C)c(C)c(C#N)c1=O)OCO2 | inconclusive [inhibitor, single point] | 
37 | CCO[C@H]1OC(C(=O)N2CCN(Cc3ccc4c(c3)OCO4)CC2)=C[C@@H](C(C)(C)C)[C@@H]1CCCO | active: 6.57 µM | 
38 | CN1CCN(S(=O)(=O)c2cccc(C(=O)NC3CCCc4ccccc43)c2)CC1 (stereo not given) | inconclusive [inhibitor, partial curve, poor fit] | 
39 | CC1CC(C)(C)NC(=S)N1CCCC(=O)Nc1ccc(Cl)cc1 (stereo not given) | inconclusive [inhibitor, single point] | 
40 | CCN(C(=O)COC(=O)C1CCN(S(=O)(=O)c2ccc(C)c(C)c2)CC1)C1CCCCC1 | inconclusive [inhibitor, single point] | 
41 | O=C(CSc1nc(O)cc(=O)[nH]1)N1c2ccccc2Sc2ccccc21 | inconclusive [inhibitor, partial curve, poor fit] | 
42 | CCN(CC)CCn1c2c(c(SCC(=O)Nc3ccc(C)c(F)c3)nc1=O)CCCC2 | active: 7.38 µM | 
43 | COc1cccc(-c2onc3ccc(C(=O)/C=C/N(C)C)cc23)c1 | inconclusive [inhibitor, partial curve] | 
44 | Cc1cc(C)c2oc(C(=O)N(Cc3ccc(F)cc3)C3CCS(=O)(=O)C3)cc(=O)c2c1 (stereo not given) | inconclusive [inhibitor, partial curve] | 
45 | COc1ccc([N+](=O)[O-])cc1NC(=O)C(C)OC(=O)CC1CCCC1 (stereo not given) | inconclusive [inhibitor, single point] | 
46 | Cc1nc(SCC(=O)Nc2cccnc2Cl)nc(C)c1C |  | inactive: 41%
47 | Cc1ccccc1-n1ncc2c1CC(C)(C)CC2NC(=O)CCC(F)(F)F (stereo not given) | inconclusive [inhibitor, single point] | 
48 | Cc1c(OC(C)C(=O)NCC(O)c2ccccc2)ccc2c3c(c(=O)oc12)CCC3 (stereo not given) | active: 13.1 µM | 

Row | Structure (SMILES) | Potency | activity change, negative = inhibition
49 | CCOc1ccc(N(CC(=O)NCc2ccco2)S(=O)(=O)c2ccc(OC)c(OC)c2)cc1 | active: 11.7 µM | 
50 | CC(C)CN1C(=O)C(=O)N(CC(=O)NC(C)CCc2ccccc2)C1=O (stereo not given) |  | inactive: 0.365%
51 | CN(C)CCCN(C(=O)CCSc1ccccc1)c1nc2cc3c(cc2s1)OCO3 | inconclusive [inhibitor, partial curve, poor fit] | 
52 | CCCCCCC1/C(=N/O)CCC1C(=O)OC (stereo not given) |  | inactive: 2.95%
53 | COc1ccc(OCCn2c(C)c(/C=N/n3cnnc3)c3ccccc32)cc1 | inconclusive [inhibitor, single point] | 
54 | CCOc1ccc(Cc2nnc(SCC(=O)Nc3ccc(OC)cc3)n(N)c2=O)cc1 | inconclusive [inhibitor, single point] | 
55 | NC(=O)N/N=C/C=C/c1ccc(F)cc1 | inconclusive [inhibitor, single point] | 
56 | CCC(=O)N1CCc2cc(S(=O)(=O)NCCC(=O)N3CCN(c4cccc(C)c4)C(C)C3)ccc21 (stereo not given) |  | inactive: -14.5%
57 | O=C(Nc1sc2c(c1C(=O)O)CCCC2)c1ccccc1Cl |  | inactive: -2.93%
58 | Fc1cccc(Cc2noc(CN3CCN(c4cnccn4)CC3)n2)c1 | inconclusive [inhibitor, partial curve, poor fit] | 
59 | COCCCNCC1C(Oc2ccc(Cl)cc2)C(=O)N1c1ccccc1C (stereo not given) | inconclusive [inhibitor, single point] | 
60 | COC(=O)c1ccc(N2CCN(S(=O)(=O)c3ccccc3)CC2)c([N+](=O)[O-])c1 | inconclusive [inhibitor, single point] | 
61 | O=C(COc1ccccc1)N=C1SC2CS(=O)(=O)CC2N1Cc1ccccc1 (stereo not given) | inconclusive [inhibitor, partial curve] | 
62 | Cc1ccc(S(=O)(=O)c2nc(-c3ccco3)oc2SCC(=O)NCC2CCCO2)cc1 (stereo not given) | inconclusive [inhibitor, single point] | 
63 | c1ccc(-c2nc(NCC3CCCO3)c3ccccc3n2)nc1 (stereo not given) | inconclusive [inhibitor, full curve] | 
64 | Cc1ccc(CS(=O)(=O)CCC(=O)O)cc1 |  | inactive: 16.9%
65 | Cc1cc2nc(NCCCO)n(CC(=O)c3cc(C(C)(C)C)c(O)c(C(C)(C)C)c3)c2cc1C | inconclusive [inhibitor, partial curve, poor fit] | 
66 | CCOC(=O)N1CCN(C(=O)C2CCN(C(=O)c3ccc(C(C)(C)C)cc3)CC2)CC1 | active: 9.28 µM | 
67 | CCOC(=O)c1[nH]c(COC(=O)c2ccccc2NC(=O)c2ccco2)c(C(=O)OCC)c1C | active: 11.7 µM | 
68 | Cc1oc2c(CN3CCCCC3)c(O)ccc2c(=O)c1-c1ccc(Cl)cc1 | active: 1.65 µM | 
69 | CCc1ccc(S(=O)(=O)Nc2c(C)n(C)n(-c3ccccc3)c2=O)cc1 |  | inactive: 2.08%
70 | CCN(Cc1ccccc1)C(=O)c1ccc(CNS(=O)(=O)c2ccc(C)cc2)cc1 | inconclusive [inhibitor, partial curve] | 

Reference: PubChem BioAssay AID504832 (National Center for Advancing Translational Sciences (NCATS), 2011)
